Source: PubChem BioAssay (NCI)
The source holds several records for some structures; these can differ, active in one and inactive in another.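 For each line, cells grew in 96-well plates with the test compound present at a single concentration for 48 hours.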 Some entries of the source have several records that differ or are many. The list is limited to them. The calls were made as follows: active = growth percent below 10; inactive = the rest. The source may hold further records. The screen tested this drug many times, at its own concentration, as given; one value stands for one run. Signs of the kind (2×) say how often a value occurs here.

Experiments:
MCF7 breast = test: NCI-60 one-dose screen, 48 h (100 = growth as untreated, 0 = no growth, -100 = all killed); details: 25 µM
HCT-116 colon = test: as above; details: 0.25 µM

For `COc1cccc2c1C(=O)c1c(O)c3c(c(O)c1C2=O)C[C@@](O)(C(=O)CO)C[C@@H]3OC1CC(N)C(O)C(C)O1` (stereo partly specified), the growth (MCF7 breast; runs of 1998) was “inactive: 91.6% and active: 2.42, -19, 1.68, -11.8, -12, -12.3, -12.5, -10.6, -54.3, -55.3, -51.1, -48.9, -62.7, -4.5, -20.5, 2.79, -17.1, -10.7, 7.14, 1.21, -33.3, 1.48, 2.98, -15.8, -11.4, -8.45, -5.34, 4, 8.57, -21.8, -38.6, 2.73, 0.562, 1.72, -25.6, 1.42, -9.36, -38.9, -19.9, -23.9, -9.78, -15, -49.6, -50.9, -44.6, -7.06, -39.1 (2×), -7.42, -46.6, -48.1, -6.53, -17.6 (2×), -31.4, -2.48, -9.18, 8.04, -6.5, -20.9, -8.74, -21.5, -31.3, -44.8, -4.84, -30.6, -20.3, -2.56, 0.37, -16.4, -6.4, -4.55%”, the growth (MCF7 breast; runs of 1999) was “active: -61.1, 1.67, -8.95, 0.407, -32.1, -1.17, -12.6, 6.98, -3.56, -6.86, -38.1, -15.1 (2×), -12.7, -24.7, -22.1, -3.52, 0.364, -6.49, -15.4, 5.16, 6.89, 0.863, 5.62, 6.34, 4.61, 0.617, 0.684, 1.97, 3.6, 2.54, 6.76, 6.23, 5.74, -100, 0.512, 3.07, 0.9, -64.6, -18, 6.22, 0.124, 3.87, 6.36, -0.263, -28.5, -24.6, -97.1, -79.5, 0.762, -89%” and the growth (MCF7 breast; runs of 2000) was “active: -100% (2×), -33.8%, 1.04%”. For the same compound, the growth (HCT-116 colon; runs of 2006) was “inactive: 19.5%, 19.9%”, the growth (HCT-116 colon; runs of 2007) was “inactive: 16.5, 35.4, 23, 22.9, 29.5 (2×), 28.1 (2×), 31.4, 28.9 (2×), 31.2, 29.6, 33.9, 30, 29.8 (2×), 31, 34.7, 26, 26.2, 18.5, 15.4, 29.1, 45.9, 25.4, 31.5, 18.9, 26.7 (2×), 41.3, 26.4, 30.8, 25.1, 25.2, 34.9% and active: 6.4%” and the growth (HCT-116 colon; runs of 2008) was “inactive: 29.7, 20.1, 27.9, 24.9, 25.1, 26.5, 23.4, 27.6, 24.7, 28.9, 25.9, 34.9 (2×), 33.5, 32.7, 21.4 (2×), 22.5, 23.7, 23.9, 25.2, 19.2, 17.9, 19.1, 18, 20.3, 15.9, 96.2, 23.5, 22, 14.5, 18.9, 16.3, 14.6, 10.5, 27.5, 19.4, 28.7, 44, 37.4, 25.6, 29.1, 27.8, 25, 20.2, 17% and active: 6.77, -2.31, 8.2, 2.33, 3.57, -21.3, -17.4, 2.15, -1.52%”. For the same compound, the growth (HCT-116 colon; runs of 2009) was “inactive: 20.1 (2×), 16.9, 25.7, 25.6, 23.4 (3×), 31.2, 25.5, 23.8, 24 (3×), 27, 26.2, 17.6, 22, 17.8 (2×), 20.3, 19.8 (2×), 20.8, 21.1, 21.9, 18, 18.2, 23.2 (2×), 16.5, 20.7 (3×), 32.4, 20.4 (3×), 30.3, 15.8, 24.6, 21, 14.9, 13.3, 19.5, 12.6, 19.3, 23, 16.2, 17.4, 16.4, 16, 21.5, 22.4, 14.1, 19.2, 22.1, 24.5, 23.3, 25.8, 21.2, 25, 21.6, 26.7, 21.7, 27.1% and active: 7.81, 9.86, 9.74, 8.55%”, the growth (HCT-116 colon; runs of 2010) was “inactive: 30.9, 24.6, 27.4, 26.1 (3×), 24.8, 33.6, 32, 28.1 (3×), 31.2, 27.8 (2×), 23.9 (2×), 29.6 (2×), 37, 17.5, 23.5, 27 (2×), 12.3, 28.7, 18.5, 20.5, 27.5, 15.7, 30.6, 23.7, 26.5, 25.8, 25.5, 25.2, 27.1 (2×), 31.5, 31.4, 32.1, 30.8, 30.3, 28.4, 31.1, 26.4, 29.7, 31.7%” and the growth (HCT-116 colon; runs of 2011) was “inactive: 26.1 (2×), 31.5, 26.7, 40.6, 38.2, 30.4 (2×), 29.9, 26.3 (3×), 31.1, 35.5, 34.4, 37.9, 29.8 (3×), 38.1, 37.1, 39, 29.4, 33.1, 32.3, 35.4, 35.1, 34.8, 32, 33.3, 33, 23.1, 30, 25.4, 23.8, 24 (2×), 21.7, 20.8, 24.5, 24.6 (2×), 25.7, 25.9, 20.6, 20.7, 23.2, 22.5, 27.9 (2×), 27.6, 31.8, 26.4, 28.7 (2×), 28.4, 27.3%”. For the same compound, the growth (HCT-116 colon; runs of 2012) was “inactive: 32.2, 24.6 (2×), 27.3, 24.7, 28.7, 28.9, 29.6, 30, 29.9, 22.3, 23.2 (2×), 20.5, 24.3 (3×), 22.8, 22.9, 21.7 (2×), 24.8 (2×), 24.5 (2×), 22, 20.1, 20.6, 26, 32.3, 28.2 (2×), 26.5 (2×), 27.4, 27.6 (2×), 28.5, 25.9, 25.8, 16.6, 16.9, 31.4, 25.1, 37.9 (2×), 28.1, 34.9, 40.4, 34.4, 36.3, 33.5, 37.4, 42.3, 29.4, 26.1, 27.7, 22.6, 29.7, 26.2, 24, 29%” and the growth (HCT-116 colon; runs of 2013) was “inactive: 26.2 (2×), 25.8 (2×), 25.9, 28.4 (3×), 30.9, 28.9, 30.8, 34.1, 33.5 (2×), 30, 33.6, 31.2, 35.2 (2×), 30.5 (2×), 28.7, 31.3 (2×), 32.3, 31.1, 29.1 (2×), 26.4 (2×), 28.2, 29.4, 29.8, 20.3 (2×), 34.2, 32.2 (3×), 24.7, 21.5 (2×), 29.9, 30.4 (2×), 32.1, 27.8, 36, 38.2, 34.7, 32.4, 17, 22.2, 25.2, 24.8, 20.8, 23.4, 20.6, 15.7, 21.1, 20.7, 17.7, 16.3, 16.2, 17.4, 21.7, 13, 23%”.
